{"source": "PubChem BioAssay AID1347165", "about": "(National Center for Advancing Translational Sciences (NCATS), 2019)", "note": "In all, about 220,000 compounds went through this assay and about 5,700 (2.6%) were called active. Inconclusive results, whose numbers are uncertain, are shown with a selection of clear calls. Calls follow the shape of the dose curve; as a rule, active = well fitted inhibition curve with a large enough effect; inconclusive = small, poorly fitted or top-dose-only effect; inactive = no such curve, though single readings can be large or run the other way. Where the call is inconclusive, the potency comes from a doubtful curve fit. Potency is read from the fitted curve at half-maximal effect; tags tell the direction and shape of the fitted curve."}
{"biological_target": "Lysine-specific demethylase 5B (Homo sapiens) (UniProt Q9UGL1)", "sequence (Q9UGL1 whole entry, looked up)": "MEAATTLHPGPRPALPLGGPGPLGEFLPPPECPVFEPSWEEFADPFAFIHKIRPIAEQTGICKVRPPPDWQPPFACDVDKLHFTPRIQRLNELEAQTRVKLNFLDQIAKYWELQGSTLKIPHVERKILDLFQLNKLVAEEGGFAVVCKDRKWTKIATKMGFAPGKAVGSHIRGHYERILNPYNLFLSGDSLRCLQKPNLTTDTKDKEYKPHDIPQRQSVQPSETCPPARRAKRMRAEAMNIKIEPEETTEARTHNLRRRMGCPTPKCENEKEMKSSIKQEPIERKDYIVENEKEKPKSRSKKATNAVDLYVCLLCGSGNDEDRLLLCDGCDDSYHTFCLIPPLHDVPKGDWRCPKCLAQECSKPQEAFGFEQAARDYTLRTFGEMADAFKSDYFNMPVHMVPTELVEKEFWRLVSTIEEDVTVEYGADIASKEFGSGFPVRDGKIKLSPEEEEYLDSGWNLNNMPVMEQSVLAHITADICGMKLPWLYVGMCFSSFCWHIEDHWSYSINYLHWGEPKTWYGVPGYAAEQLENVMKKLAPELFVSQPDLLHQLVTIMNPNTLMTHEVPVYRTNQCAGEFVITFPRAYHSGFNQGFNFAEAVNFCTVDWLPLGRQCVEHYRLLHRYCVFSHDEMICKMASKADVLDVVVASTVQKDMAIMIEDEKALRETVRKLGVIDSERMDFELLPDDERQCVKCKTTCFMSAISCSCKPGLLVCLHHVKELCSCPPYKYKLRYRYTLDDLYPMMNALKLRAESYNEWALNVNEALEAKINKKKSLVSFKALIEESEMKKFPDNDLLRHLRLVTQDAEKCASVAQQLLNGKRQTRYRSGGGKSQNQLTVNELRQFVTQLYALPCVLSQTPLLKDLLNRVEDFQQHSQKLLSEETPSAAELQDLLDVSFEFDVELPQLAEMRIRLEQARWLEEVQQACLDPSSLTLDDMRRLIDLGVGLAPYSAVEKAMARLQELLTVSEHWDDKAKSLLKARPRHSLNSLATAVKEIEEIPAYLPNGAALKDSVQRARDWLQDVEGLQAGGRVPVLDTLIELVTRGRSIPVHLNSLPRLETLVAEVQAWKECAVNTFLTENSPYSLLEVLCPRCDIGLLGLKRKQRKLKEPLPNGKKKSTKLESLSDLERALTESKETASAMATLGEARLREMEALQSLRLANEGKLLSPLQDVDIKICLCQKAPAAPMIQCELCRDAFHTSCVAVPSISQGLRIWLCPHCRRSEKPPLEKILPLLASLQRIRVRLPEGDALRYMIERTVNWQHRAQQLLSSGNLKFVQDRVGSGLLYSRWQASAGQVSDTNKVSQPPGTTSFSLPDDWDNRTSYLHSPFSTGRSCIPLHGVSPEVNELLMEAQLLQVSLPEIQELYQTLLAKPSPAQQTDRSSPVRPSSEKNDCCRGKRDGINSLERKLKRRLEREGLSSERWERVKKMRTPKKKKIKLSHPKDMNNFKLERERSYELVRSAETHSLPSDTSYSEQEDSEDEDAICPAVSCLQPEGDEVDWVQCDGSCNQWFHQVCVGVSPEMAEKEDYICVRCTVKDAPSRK", "assay": "Primary screen for KDM5B Histone Demethylases FDH-coupled qHTS; also: nearly all actives have a fitted effect of over 70% in size; as to activity change, negative = inhibition: 0% is about no effect", "details": "FDH-coupled NADH fluorescence (FDH is formaldehyde dehydrogenase); activity change, negative = inhibition: at 57.7 µM (top of the series) unless noted", "how_it_was_run": "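Measured: NADH fluorescence change, 30 min, RT. System: KDM5BΔAP 200 nM final, H3K4me3 peptide, α-KG, Fe(II), ascorbate, NAD⁺ plus FDH, pH 7.5 HEPES. Compounds: titrated, 10 min pre-incubation with enzyme.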"}
{"smiles": "COc1ccc(-c2c(C)c3ccc(O)c(CN4CCOCC4)c3oc2=O)cc1OC", "Potency": "inconclusive: 31.6 µM [inhibitor, partial curve, poor fit]"}
{"smiles": "CC1CCN(C(=O)Cn2c(-c3cccs3)cc3cc(Cl)ccc32)CC1", "Potency": "inconclusive: 35.5 µM [inhibitor, partial curve, poor fit]"}
{"smiles": "O=C(Nc1c(C(=O)c2ccc3c(c2)OCCO3)oc2ccccc12)c1ccc(F)cc1", "activity change, negative = inhibition": "inactive: 9.6%"}
{"smiles": "COc1ccccc1CC(=O)NCc1nnc2ccc(-c3ccccc3)nn12", "activity change, negative = inhibition": "inactive: -19.2%"}
{"smiles": "CC(C)(C)c1ccc(C(=O)Nc2ccc(NC(=O)c3ccc(C#N)cc3F)cc2)cc1", "activity change, negative = inhibition": "inactive: 8.96%"}
{"smiles": "COc1ccc(OCCn2c(NC(=O)c3ccc(OC)cc3)nc3ccccc32)cc1", "Potency": "inconclusive: 39.8 µM [inhibitor, partial curve, poor fit]"}
{"smiles": "O=C(Nc1ccc2c(c1)OCO2)N1CCc2onc(-c3ccc(F)c(F)c3)c2C1", "Potency": "inconclusive: 39.8 µM [inhibitor, single point]"}
{"smiles": "Cc1ccccc1Nc1nc(NC2CCCCC2)nc2c1cnn2C", "Potency": "inconclusive: 39.8 µM [inhibitor, single point]"}
{"smiles": "O=C(COC(=O)C12CC3CC(CC(Br)(C3)C1)C2)Nc1ccc([N+](=O)[O-])cc1Br", "activity change, negative = inhibition": "inactive: 18.1%"}
{"smiles": "C[C@@H]1C[C@H](C)CN(C(C(=O)O)c2cn(Cc3ccccc3)c3cc(C(=O)O)ccc23)C1", "note": "(some centres undefined)", "Potency": "inconclusive: 31.6 µM [inhibitor, partial curve, poor fit]"}
{"smiles": "COCCCNC(=O)C1(CCO)CCN(Cc2ccccc2)C1", "note": "(centres undefined)", "activity change, negative = inhibition": "inactive: -19.3%"}
{"smiles": "CC(=O)c1cc2c(ccc3ccccc32)o1", "Potency": "inconclusive: 22.4 µM [inhibitor, partial curve, poor fit]"}
{"smiles": "COc1ccc(C2Cn3nnc(C(=O)N4CCN(C(=O)c5ccc(F)cc5)CC4)c3CO2)cc1", "note": "(centres undefined)", "Potency": "inconclusive: 31.6 µM [inhibitor, single point]"}
{"smiles": "CSc1ccc(/C=C2\\Cc3ccccc3C2=O)cc1", "activity change, negative = inhibition": "inactive: -2.13%"}
{"smiles": "COc1ccc(C(=O)N[C@@H]2CN(c3ncccn3)C[C@H]2CN(C)C)cc1F", "Potency": "active: 25.1 µM"}
{"smiles": "Cc1cccc(N2CCN(C(=O)c3ccc4c(c3)N(Cc3ccccc3)C(=O)c3ccccc3S4(=O)=O)CC2C)c1", "note": "(centres undefined)", "activity change, negative = inhibition": "inactive: -7.17%"}
{"smiles": "CC(C(N)=O)N1CCC(n2nccc2NC(=O)c2ccc3c(c2)OCO3)CC1", "note": "(centres undefined)", "Potency": "inconclusive: 20 µM [inhibitor, single point]"}
{"smiles": "O=C(NCCn1ccn2nc(-c3ccc(F)cc3)cc2c1=O)c1c(F)cccc1F", "Potency": "inconclusive: 31.6 µM [inhibitor, single point]"}
{"smiles": "O=C(Nc1ccc(=O)n2c1[C@@H]1C[C@@H](CN(C(=O)Nc3ccc(F)cc3)C1)C2)NC1CCCCC1", "Potency": "active: 20 µM"}
{"smiles": "CCOC(=O)C(=CNc1nc(-c2ccc3ccccc3c2)cs1)C(=O)OCC", "Potency": "inconclusive: 35.5 µM [inhibitor, partial curve, poor fit]"}
{"smiles": "CCc1ccccc1NC(=O)c1cn(C)c(=O)c2ccccc12", "Potency": "inconclusive: 1.12 µM [inhibitor, full curve, poor fit]"}
{"smiles": "CCC(=O)Nc1ccc(Cl)c(-c2nc3ccccc3[nH]2)c1", "Potency": "inconclusive: 35.5 µM [inhibitor, single point]"}
{"smiles": "Cc1ccc(-n2ncc3c(N4CCCCCC4)ncnc32)cc1Cl", "activity change, negative = inhibition": "inactive: -7.36%"}
{"smiles": "CC(C)c1ccc(OCC(=O)NOCc2ccccc2)cc1", "activity change, negative = inhibition": "inactive: 20.1%"}
{"smiles": "Cc1ccc2[nH]c(C(=O)O)cc2c1", "Potency": "inconclusive: 22.4 µM [inhibitor, partial curve, poor fit]"}
{"smiles": "COc1ccc(-c2[nH]nc3nc(-c4cc(Br)ccc4OC)cc(C(=O)O)c23)cc1", "Potency": "inconclusive: 39.8 µM [inhibitor, single point]"}
{"smiles": "COC(=O)c1ccc(C)c(NC(=O)CN(c2cc(C(F)(F)F)ccc2Cl)S(C)(=O)=O)c1", "activity change, negative = inhibition": "inactive: 10.3%"}
{"smiles": "COc1ccc(-c2cc(-c3ccncc3)cn3cncc23)cc1", "Potency": "active: 39.8 µM"}
{"smiles": "CCCN(CCC)C(=O)Cn1c(=O)n(-c2cccc(C)c2)c(=O)c2c1c1cc(OC)ccc1n2C", "Potency": "inconclusive: 31.6 µM [inhibitor, partial curve, poor fit]"}
{"smiles": "COc1ccc(C(=O)N2CCCN(c3cc(-c4ccc(C)c(C)c4)[nH]n3)CC2)cc1OC", "activity change, negative = inhibition": "inactive: 0.811%"}
{"smiles": "COc1cccc(-c2cc(C(F)(F)F)nc(NCCc3ccc(OC)c(OC)c3)n2)c1", "Potency": "inconclusive: 31.6 µM [inhibitor, partial curve, poor fit]"}
{"smiles": "CCn1nc(C(=O)Nc2nc3c(s2)CC(C)CC3)c2ccccc2c1=O", "note": "(centres undefined)", "activity change, negative = inhibition": "inactive: 2.77%"}
{"smiles": "COc1cc(F)cc(-c2cnc3[nH]cc(CC(=O)N4CCOCC4)c3c2)c1", "Potency": "active: 35.5 µM"}
{"smiles": "Cc1cc(C)c(C(=O)COC(=O)c2ccc(C=O)cc2)c(C)c1", "Potency": "inconclusive: 20 µM [inhibitor, partial curve, poor fit]"}
{"smiles": "CC1CCCN(C(=O)c2cc3c(s2)CCN(C(=O)c2ccc(Cl)cc2)C3)C1", "note": "(centres undefined)", "activity change, negative = inhibition": "inactive: -25.1%"}
{"smiles": "COc1ccc(NC(=O)c2ccco2)cc1NC(=O)c1cc(Cl)ccc1OC", "Potency": "inconclusive: 12.6 µM [inhibitor, partial curve, poor fit]"}
{"smiles": "COc1ccccc1C(=O)Nc1ccc2nc(SCC(=O)N3CCCc4ccccc43)sc2c1", "Potency": "inconclusive: 28.2 µM [inhibitor, partial curve, poor fit]"}
{"smiles": "O=C(c1ccc(Cl)s1)N1CCC2(CC1)CN(c1ccncn1)CC2CO", "note": "(centres undefined)", "activity change, negative = inhibition": "inactive: 17.6%"}
{"smiles": "CCCCCOc1ccc(/C=C(/C#N)c2nc3ccccc3[nH]2)cc1OC", "activity change, negative = inhibition": "inactive: -3.39%"}
{"smiles": "COc1ccccc1C(=O)Nc1nc2n(n1)C(c1ccc(F)cc1)C=C(c1ccc(Cl)cc1)N2", "note": "(centres undefined)", "Potency": "inconclusive: 39.8 µM [inhibitor, single point]"}
{"smiles": "O=C(NC1C=CS(=O)(=O)C1)c1ccc2nc(-c3ccc(F)cc3)cn2c1", "note": "(centres undefined)", "Potency": "active: 25.1 µM"}
{"smiles": "CCOC(=O)c1cn(Cc2ccc(C)cc2)c2cc(F)ccc2c1=O", "activity change, negative = inhibition": "inactive: 14.5%"}
{"smiles": "Cn1nc(C2CCCNC2)c2c(C(=O)NCC(F)(F)F)cc(C3CC3)nc21", "note": "(centres undefined)", "Potency": "inconclusive: 56.2 µM [inhibitor, partial curve, poor fit]"}
{"smiles": "CCNc1ncnc2sc3c(c12)CCN(C(=O)COC)C3", "Potency": "active: 35.5 µM"}
{"smiles": "CCC1Oc2ccc(NS(=O)(=O)c3ccc(Cl)cc3)cc2CN(Cc2ccc(F)cc2)C1=O", "note": "(centres undefined)", "Potency": "inconclusive: 35.5 µM [inhibitor, partial curve, poor fit]"}
{"smiles": "CCc1ccc(C(=O)NCc2ccco2)cc1", "activity change, negative = inhibition": "inactive: 2.52%"}
{"smiles": "CCc1ccc(CNC(=O)C2CCCN(c3nnc(C)c4c(C)n(-c5ccccc5)nc34)C2)cc1", "note": "(centres undefined)", "Potency": "inconclusive: 35.5 µM [inhibitor, partial curve, poor fit]"}
{"smiles": "Cc1c(NC(=O)c2cc3cc(Br)ccc3[nH]2)c(=O)n(-c2ccccc2)n1C", "Potency": "inconclusive: 20 µM [inhibitor, partial curve, poor fit]"}
{"smiles": "CC(NS(=O)(=O)c1ccc(F)cc1)C(=O)Nc1ccccc1", "note": "(centres undefined)", "activity change, negative = inhibition": "inactive: 13.9%"}
{"smiles": "O=c1c2cc3c(cc2nc2sc(Nc4cccc([N+](=O)[O-])c4)nn12)OCO3", "Potency": "inconclusive: 1.12 µM [inhibitor, full curve, poor fit]"}
{"smiles": "CCN1CC(CN(C)C(=O)c2nn(Cc3ccccc3)c(=O)c3ccccc23)Oc2ccccc21", "note": "(centres undefined)", "activity change, negative = inhibition": "inactive: -6.35%"}
{"smiles": "Cc1ccc(C)c(S(=O)(=O)c2nnn3c2nc(N2CCN(C)CC2)c2sccc23)c1", "Potency": "inconclusive: 31.6 µM [inhibitor, partial curve, poor fit]"}
{"smiles": "COc1ccc(CC(=O)NCC(c2cccs2)S(=O)(=O)c2ccc(F)c(C)c2)cc1", "note": "(centres undefined)", "Potency": "inconclusive: 7.94 µM [inhibitor, partial curve, poor fit]"}
{"smiles": "O=c1cc(CN2CCN(S(=O)(=O)c3ccc(Cl)cc3)CC2)c2cc(Cl)c(O)cc2o1", "activity change, negative = inhibition": "inactive: -1580%"}
{"smiles": "CCOC(=O)c1c(NC(=O)c2ccc(OCC)c(Br)c2)sc2c1CCCC2", "activity change, negative = inhibition": "inactive: -7.79%"}
{"smiles": "Cn1c(=O)c2c(ncn2CCC(=O)Nc2cc(Cl)cc(Cl)c2)n(C)c1=O", "activity change, negative = inhibition": "inactive: 9.31%"}
{"smiles": "CC(=O)Nc1cc(C(=O)NCc2ccc(F)cc2)ccc1Sc1ccc(F)cc1", "activity change, negative = inhibition": "inactive: -10.4%"}
{"smiles": "Cc1cc2oc(=O)c(CC(=O)NCCc3ccccc3F)c(C)c2c2occ(C(C)(C)C)c12", "Potency": "inconclusive: 17.8 µM [inhibitor, partial curve, poor fit]"}
{"smiles": "O=C(/C=C/c1ccco1)N(Cc1cccc(Br)c1)C1CCS(=O)(=O)C1", "note": "(centres undefined)", "Potency": "inconclusive: 22.4 µM [inhibitor, single point]"}
{"smiles": "CC1CCCN(c2ncnc3c2CN(C2CCCNCC2)C(=O)CN3C)C1", "note": "(centres undefined)", "Potency": "inconclusive: 35.5 µM [inhibitor, partial curve, poor fit]"}
{"smiles": "CCN1c2cc(C(=O)NCc3cccc(Cl)c3)ccc2C(=O)N2CCCCC21", "note": "(centres undefined)", "Potency": "inconclusive: 35.5 µM [inhibitor, partial curve, poor fit]"}
{"smiles": "Cc1nc2ccccc2c(Cl)c1C/C=C/Cl", "activity change, negative = inhibition": "inactive: -7.61%"}
{"smiles": "C[C@@H]1C(=O)O[C@H]2[C@H]1CC[C@@]1(C)Cc3sc(Nc4cccnc4)nc3[C@@H](C)[C@H]21", "activity change, negative = inhibition": "inactive: 14.2% [at 86.2 µM]"}
{"smiles": "CC1Nc2ccccc2NC2=C1C(=O)CC(C)(C)C2", "note": "(centres undefined)", "activity change, negative = inhibition": "inactive: 8.8%"}
{"smiles": "Cn1nc(C(=O)Nc2ccc3c(c2)C(=O)N2CCC[C@H]2C(=O)N3)c2ccccc21", "Potency": "inconclusive: 35.5 µM [inhibitor, single point]"}
{"smiles": "O=C(C1CCN(Cc2ccco2)CC1)N1CCCn2nc(CO)cc2C1", "activity change, negative = inhibition": "inactive: 23.1%"}
{"smiles": "NC(=O)[C@@H](Cc1c[nH]c2ccccc12)NC(=O)[C@@H]1C[C@@H](NS(=O)(=O)c2cccs2)CCN1C(=O)[C@@H](O)[C@H](O)C(=O)O", "activity change, negative = inhibition": "inactive: -8.03%"}
{"smiles": "CCCOc1ccc(NC(=O)c2ccc(Cl)cc2)c2cccnc12", "activity change, negative = inhibition": "inactive: 13%"}
{"smiles": "CCN1c2cc(C(=O)Nc3cc(OC)cc(OC)c3)ccc2C(=O)N2CCCCC21", "note": "(centres undefined)", "Potency": "inconclusive: 25.1 µM [inhibitor, partial curve, poor fit]"}
